In article PMC7819943, “Rice protein-binding microarrays: a tool to detect cis-acting elements near promoter regions in rice” one finds binding signal data, which are given here for 42 sequences.

This is one part of the list.

The target in the assay is T1, OsWOX13 (Oryza sativa, UniProt Q5QMM3 1-267).
T1 sequence: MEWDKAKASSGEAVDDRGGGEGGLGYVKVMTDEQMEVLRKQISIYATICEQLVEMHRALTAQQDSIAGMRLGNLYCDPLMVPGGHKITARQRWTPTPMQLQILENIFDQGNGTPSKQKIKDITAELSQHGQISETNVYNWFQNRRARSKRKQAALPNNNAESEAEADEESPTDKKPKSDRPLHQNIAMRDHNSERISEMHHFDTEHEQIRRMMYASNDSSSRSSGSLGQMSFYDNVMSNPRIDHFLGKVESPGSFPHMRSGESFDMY
The assay is described as follows: protein-binding microarray (RPBM); PBS, 2% BSA, 51.3 ng/ul salmon testes DNA, 50 uM zinc acetate, 200 nM TF, 25 C, 1 h; high values mean tight binding. The note with it: protein: recombinant; tags: N-terminal polyhistidine and DsRed monomer fusion (pET32a); label: CyDye5-dUTP incorporated in the synthesized complementary strand; 3' TTTTT single-stranded linker to array surface; dsDNA, one strand shown. The gist of the method: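 Polyhistidine-tagged DsRed fusions of transcription factors, joined at the N-terminus, were expressed in E. coli BL21-CodonPlus and isolated on Ni–NTA. They were incubated at 200 nM for 1 h at 25 °C on a custom Agilent array, double-stranded and BSA-blocked, in PBS with 2% BSA, salmon testes DNA and 50 µM zinc acetate. The binding signal is per-feature fluorescence intensity (arbitrary units) read on an Axon 4000B scanner after washing.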
Regarding “AGGGGCATTTAGATAATTGACAAACCTAATAGTTGCAAATCGGAGTCACCTAGTGCAG”, the binding signal was 31600 fluorescence intensity (a.u.).
In the case of “GACTAATTTTATCCAAAACATAAGATATTTATGATGGAAGCGGAGTCACCTAGTGCAG”, the binding signal is 11600 fluorescence intensity (a.u.).
“TCAAAATTAAAGGAGAAATTTGAAAAGACAAATGCTGCGTCGGAGTCACCTAGTGCAG”: the binding signal was 3270 fluorescence intensity (a.u.).
The result for “AAATTAATAATTATGTGGGACCCAACTGAGAACTGTCTAACGGAGTCACCTAGTGCAG” reads 10600 fluorescence intensity (a.u.).
Then “CGGCAGGTTTGCCCACTCCTGATTGGTCCACGTGGAGCTGCGGAGTCACCTAGTGCAG”, with 3900 fluorescence intensity (a.u.); and “AGTTAAACTAATTACGTAATTGAACTAAGTAAAACTGGATCGGAGTCACCTAGTGCAG”, with 39200 fluorescence intensity (a.u.); and “ACATTAATGTCAATTATACAATCTTAGTCTGCCAACACATCGGAGTCACCTAGTGCAG”, with 41600 fluorescence intensity (a.u.).
Consider “TAGTACTCTCAATTAATTACAAACCACACCATCAAATTCTCGGAGTCACCTAGTGCAG”, for which the binding signal was 7020 fluorescence intensity (a.u.).
The result for “AAAGTAACAAAATAAACTCAAATTAGTAAGGTAAATTTGCCGGAGTCACCTAGTGCAG” reads 5980 fluorescence intensity (a.u.); that for “ATTGCAGATTGATTTATCTCGTCAAGATTGATGAGCATGCCGGAGTCACCTAGTGCAG”, 63500 fluorescence intensity (a.u.).
Take “ACAATCAGGAATAATTAAGACCCTGTCGTTGTCGGGTCTGCGGAGTCACCTAGTGCAG”: the binding signal was 7880 fluorescence intensity (a.u.).
With “TAACTTCCTTGATTTGATCGGATGAAAGCAGCGACATTTGCGGAGTCACCTAGTGCAG”, the binding signal was 10000 fluorescence intensity (a.u.).
Then “ACCATCTATAATTAATGTAATAGACAATTCATACAACAGTCGGAGTCACCTAGTGCAG”, with 15500 fluorescence intensity (a.u.); and “GAAATAATTAACATTTCGATTGCTGAGCTCCCCAAGTTCACGGAGTCACCTAGTGCAG”, with 28000 fluorescence intensity (a.u.); and “GGTTCTTCTGAGCGGGGCCGGGGCGGGGCGGCAGCTGGGGCGGAGTCACCTAGTGCAG”, with 6700 fluorescence intensity (a.u.).
For the sequence “TCTTTACTTAATTAATTTGATGCATGTATGCCAGGATTTGCGGAGTCACCTAGTGCAG”, the binding signal was 35800 fluorescence intensity (a.u.).
Regarding “CATTTGCCTGATTAGTCCATTCCCCACGGTTTATATTTTCCGGAGTCACCTAGTGCAG”, the binding signal was 10200 fluorescence intensity (a.u.).
The result for “CCGAAATTTGGATGACGAAATTCGAACAAATTTTGTTGCGCGGAGTCACCTAGTGCAG” reads 27200 fluorescence intensity (a.u.); that for “GTATAATTGCCCGGTAGGAACGGTCCTCCCTTGATGCTCCCGGAGTCACCTAGTGCAG”, 27600 fluorescence intensity (a.u.).
With “TTTAACAGACAACGAAATTTTAGTAGAGATAACTCTTCTCCGGAGTCACCTAGTGCAG”, the binding signal is 13200 fluorescence intensity (a.u.).
Turning to “ATTAATGTATATCATTTAACAAACATGCAAATTTAAATGCCGGAGTCACCTAGTGCAG”, the binding signal is 13900 fluorescence intensity (a.u.).
Consider “TCTTCTGATTATCTGATTATGGAAGGCATTAAGACACGGTCGGAGTCACCTAGTGCAG”, for which the binding signal was 39200 fluorescence intensity (a.u.).
The result for “GCGCTATGATTAATTAATCACCTCGATCCGCCAGCTCGATCGGAGTCACCTAGTGCAG” reads 51100 fluorescence intensity (a.u.).
Then “CCTCGCTGTAACCCTCACAGTTGCGAGATAATCTCCGAAACGGAGTCACCTAGTGCAG”, with 3350 fluorescence intensity (a.u.).
As for “TGTTTATTTTAATTAGATGAATCATCAAATGTTTATCAAACGGAGTCACCTAGTGCAG”, the binding signal is 11100 fluorescence intensity (a.u.).
Take “TTTTAAAATAAATTAAATAAGACGTACGATTAAAGTTGGACGGAGTCACCTAGTGCAG”: the binding signal was 5580 fluorescence intensity (a.u.).
As to “CACCATTTTATGTAGATTGGCAAGGGCTCTCGTGGTGATGCGGAGTCACCTAGTGCAG”, the binding signal was 7900 fluorescence intensity (a.u.).
The result for “GGAAACATTTAGTTAATTGTAGGAATTGTACTTCCCACGACGGAGTCACCTAGTGCAG” reads 11600 fluorescence intensity (a.u.).
Then “GGGGTATCAATCAGGCTGGAGGCACATTTAAGGGAGCCATCGGAGTCACCTAGTGCAG”, with 18700 fluorescence intensity (a.u.); and “ACGAGGTCTTGATTGCACCACTAAAACAAAAGAGATCGATCGGAGTCACCTAGTGCAG”, with 5640 fluorescence intensity (a.u.).
The result for “TGGAAATTATGAACCCTGACCAGTACTAGCAGGAGCAGCACGGAGTCACCTAGTGCAG” reads 4070 fluorescence intensity (a.u.); that for “GTGGTAGATTGGGGTTTTGAACCAAATATGAATGATCAAACGGAGTCACCTAGTGCAG”, 14000 fluorescence intensity (a.u.).
Consider “ATAAATTAATTTTAAGTTTGTTTTCTCCGCCTAATTGTTGCGGAGTCACCTAGTGCAG”, for which the binding signal was 29100 fluorescence intensity (a.u.).
The result for “TCTATAAATTTCTATTCAGATTTGTTTCGTTGTGTTAGAACGGAGTCACCTAGTGCAG” reads 4200 fluorescence intensity (a.u.).
For “CTAAATTTTCATACATACAGTTACCTTCAGTAAACATAGCCGGAGTCACCTAGTGCAG”, the binding signal is 6340 fluorescence intensity (a.u.).
The result for “CCTGATTTGGCAATTATGAAATGTTGGGCAACCAAAAGACCGGAGTCACCTAGTGCAG” reads 39200 fluorescence intensity (a.u.).
The result for “TCAATTAATTGATTTATAATGATTTGGTCTTATCAATCCCCGGAGTCACCTAGTGCAG” reads 53400 fluorescence intensity (a.u.); that for “TGTAACTGAACTCATGATCATCATATCCGATCTGATCGGACGGAGTCACCTAGTGCAG”, 4780 fluorescence intensity (a.u.); that for “GTTAAATAAATCTCTTGATATGTCATTGACTTACGCCGTGCGGAGTCACCTAGTGCAG”, 4920 fluorescence intensity (a.u.).
Then “TCGATGACATTTCTTGGAATTAGACGTTTGTTAATGACATCGGAGTCACCTAGTGCAG”, with 3250 fluorescence intensity (a.u.); and “GAACTAATCTAATCTAATGCTAATTAATGGAATTGGCGCGCGGAGTCACCTAGTGCAG”, with 27800 fluorescence intensity (a.u.); and “CTCAAAAGTTTGGGTTGATCGATCATTTGCCTACCGAAACCGGAGTCACCTAGTGCAG”, with 65500 fluorescence intensity (a.u.).
